Measurements published in publication PMC8546722.
Results are given in words; binding and its absence hold for the method and conditions named. Some binding calls cover weakened binding; strength is not graded here. Where a sequence is shown, tags or fusion partners need not be part of it.

T1: Ffh (two-hybrid fusion) (Streptococcus mutans) (UniProt Q54431)
T1 sequence: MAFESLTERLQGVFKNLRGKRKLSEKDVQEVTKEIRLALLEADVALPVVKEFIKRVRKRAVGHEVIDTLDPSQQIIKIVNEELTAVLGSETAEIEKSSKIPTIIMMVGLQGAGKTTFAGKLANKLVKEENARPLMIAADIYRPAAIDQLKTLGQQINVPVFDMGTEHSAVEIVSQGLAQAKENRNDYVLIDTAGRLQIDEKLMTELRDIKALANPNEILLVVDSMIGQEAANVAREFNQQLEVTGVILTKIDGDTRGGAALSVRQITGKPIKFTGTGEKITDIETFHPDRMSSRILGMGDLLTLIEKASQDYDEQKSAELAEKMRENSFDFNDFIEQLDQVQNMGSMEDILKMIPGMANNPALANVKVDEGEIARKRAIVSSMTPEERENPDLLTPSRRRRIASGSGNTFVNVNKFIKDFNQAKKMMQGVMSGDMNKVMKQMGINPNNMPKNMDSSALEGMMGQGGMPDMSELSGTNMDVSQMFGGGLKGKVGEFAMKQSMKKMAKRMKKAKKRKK

T2: T25-YidC2 (full-length YidC2, two-hybrid fusion) (Streptococcus mutans) (UniProt Q8DSP8)
T2 sequence: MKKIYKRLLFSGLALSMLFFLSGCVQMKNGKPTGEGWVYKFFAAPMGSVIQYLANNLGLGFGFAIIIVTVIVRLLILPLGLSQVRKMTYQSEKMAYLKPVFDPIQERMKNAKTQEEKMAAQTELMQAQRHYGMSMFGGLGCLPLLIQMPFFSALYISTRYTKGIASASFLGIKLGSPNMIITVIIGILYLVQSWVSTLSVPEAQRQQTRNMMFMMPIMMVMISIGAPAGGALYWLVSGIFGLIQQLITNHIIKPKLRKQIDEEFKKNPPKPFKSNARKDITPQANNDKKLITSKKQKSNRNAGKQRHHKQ

T3: T25-YidC1 (full-length YidC1, two-hybrid fusion) (Streptococcus mutans) (UniProt Q8DVX3)
T3 sequence: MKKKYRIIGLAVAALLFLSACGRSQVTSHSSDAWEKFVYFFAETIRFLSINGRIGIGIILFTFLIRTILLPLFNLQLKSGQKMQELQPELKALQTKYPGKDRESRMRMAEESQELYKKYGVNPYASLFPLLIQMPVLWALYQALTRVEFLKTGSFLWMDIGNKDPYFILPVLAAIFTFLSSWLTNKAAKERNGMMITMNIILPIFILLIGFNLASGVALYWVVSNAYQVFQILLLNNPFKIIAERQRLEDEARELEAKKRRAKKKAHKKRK

T4: FtsY (two-hybrid fusion) (Streptococcus mutans) (UniProt Q8CWX8)
T4 sequence: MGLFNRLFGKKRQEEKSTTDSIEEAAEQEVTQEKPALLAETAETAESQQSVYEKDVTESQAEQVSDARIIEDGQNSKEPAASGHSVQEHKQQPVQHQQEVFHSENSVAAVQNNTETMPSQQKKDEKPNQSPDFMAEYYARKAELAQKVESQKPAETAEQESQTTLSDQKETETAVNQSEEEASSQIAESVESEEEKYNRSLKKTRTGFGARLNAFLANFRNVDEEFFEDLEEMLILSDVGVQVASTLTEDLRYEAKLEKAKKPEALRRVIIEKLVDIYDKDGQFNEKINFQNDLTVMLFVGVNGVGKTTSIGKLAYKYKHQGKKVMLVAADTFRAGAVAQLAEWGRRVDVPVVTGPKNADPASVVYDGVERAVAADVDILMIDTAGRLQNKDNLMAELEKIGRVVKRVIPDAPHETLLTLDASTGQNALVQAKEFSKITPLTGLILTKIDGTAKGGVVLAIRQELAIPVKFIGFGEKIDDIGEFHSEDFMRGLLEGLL


What was measured:
[1] = target: T1, Ffh (two-hybrid fusion) (Streptococcus mutans); assay: two-hybrid
[2] = target: T2, T25-YidC2 (full-length YidC2, two-hybrid fusion) (Streptococcus mutans); assay: two-hybrid; bacterial two-hybrid (BACTH): T25 (pKT25) and T18 (pUT18C) fusions cotransformed in E. coli cya mutant BTH101; blue colour on LB agar with X-gal and 0.5 mM IPTG, 48 h at 30°C
[3] = target: T3, T25-YidC1 (full-length YidC1, two-hybrid fusion) (Streptococcus mutans); assay: as above
[4] = target: T2, T25-YidC2 (full-length YidC2, two-hybrid fusion) (Streptococcus mutans); assay: two-hybrid
[5] = target: T3, T25-YidC1 (full-length YidC1, two-hybrid fusion) (Streptococcus mutans); assay: two-hybrid
[6] = target: T3, T25-YidC1 (full-length YidC1, two-hybrid fusion) (Streptococcus mutans); assay: two-hybrid; remark: listed apart in the source
[7] = target: T1, Ffh (two-hybrid fusion) (Streptococcus mutans); assay: two-hybrid; bacterial two-hybrid (BACTH): T25 (pKT25) and T18 (pUT18C) fusions cotransformed in E. coli cya mutant BTH101; blue colour on LB agar with X-gal and 0.5 mM IPTG, 48 h at 30°C
[8] = target: T4, FtsY (two-hybrid fusion) (Streptococcus mutans); assay: as above

binding [2] | binding [6] | Molecule | binding [3] | further results
– | – | SecE (two-hybrid fusion) (from UniProt Q8DS81 1-58) | – | binding [1]: no binding
– | – | DnaK (two-hybrid fusion) (from UniProt O06942 1-612) | – | binding [4]: binds; binding [5]: binds
binds | binds | Ffh (two-hybrid fusion) (protein, UniProt Q54431 1-516) MAFESLTERLQGVFKNLRGKRKLSEKDVQEVTKEIRLALLEADVALPVVKEFIKRVRKRAVGHEVIDTLDPSQQIIKIVNEELTAVLGSETAEIEKSSKIPTIIMMVGLQGAGKTTFAGKLANKLVKEENARPLMIAADIYRPAAIDQLKTLGQQINVPVFDMGTEHSAVEIVSQGLAQAKENRNDYVLIDTAGRLQIDEKLMTELRDIKALANPNEILLVVDSMIGQEAANVAREFNQQLEVTGVILTKIDGDTRGGAALSVRQITGKPIKFTGTGEKITDIETFHPDRMSSRILGMGDLLTLIEKASQDYDEQKSAELAEKMRENSFDFNDFIEQLDQVQNMGSMEDILKMIPGMANNPALANVKVDEGEIARKRAIVSSMTPEERENPDLLTPSRRRRIASGSGNTFVNVNKFIKDFNQAKKMMQGVMSGDMNKVMKQMGINPNNMPKNMDSSALEGMMGQGGMPDMSELSGTNMDVSQMFGGGLKGKVGEFAMKQSMKKMAKRMKKAKKRKK | – | –
– | binds | FtsY (two-hybrid fusion) (protein, UniProt Q8CWX8 1-498) MGLFNRLFGKKRQEEKSTTDSIEEAAEQEVTQEKPALLAETAETAESQQSVYEKDVTESQAEQVSDARIIEDGQNSKEPAASGHSVQEHKQQPVQHQQEVFHSENSVAAVQNNTETMPSQQKKDEKPNQSPDFMAEYYARKAELAQKVESQKPAETAEQESQTTLSDQKETETAVNQSEEEASSQIAESVESEEEKYNRSLKKTRTGFGARLNAFLANFRNVDEEFFEDLEEMLILSDVGVQVASTLTEDLRYEAKLEKAKKPEALRRVIIEKLVDIYDKDGQFNEKINFQNDLTVMLFVGVNGVGKTTSIGKLAYKYKHQGKKVMLVAADTFRAGAVAQLAEWGRRVDVPVVTGPKNADPASVVYDGVERAVAADVDILMIDTAGRLQNKDNLMAELEKIGRVVKRVIPDAPHETLLTLDASTGQNALVQAKEFSKITPLTGLILTKIDGTAKGGVVLAIRQELAIPVKFIGFGEKIDDIGEFHSEDFMRGLLEGLL | – | –
binds | – | YlxM (two-hybrid fusion) (protein, UniProt P96468 1-110) MEIEKTNRMNALFEFYAALLTDKQMNYIELYYADDYSLAEIAEEFDVSRQAVYDNIKRTEKILEDYEMKLHMYSDYVVRSEIFDAIMKKYPNDPYLQNKISILTTIDNRD | binds | binding [7]: binds; binding [8]: no binding

Molecule | binding [2] | binding [6] | binding [3] | further results
HlyX (two-hybrid fusion) (from UniProt O68574 1-445) | binds | – | binds | –
